For 39 variants, self-cleavage results are on record in the RNAGym collection of RNA variant scans (doi:10.7554/elife.90254).

B1: LINE1-full (parent)
chain: UACGUAGGUGGUUUUCCCCUGAUAGUGCUAAGGGGGCCUGGAAGUUUGGACUGGGCAGAGCUCAACACAGCGUGGCAAAGUGGCUGUGGCUAGACUGCCUCUCUGGAUUCCUCGUCACUCAGCAGGGCAUCUCUGAGAGAAAUGCC

The source gives no read counts; variants with many changes may rest on few reads.

The variants in this data set derive from B1. Briefly: self-cleavage, relative activity (ratio to wild type); higher = more cleavage; in vitro, sequencing; the parent is a self-cleaving ribozyme.
With UACGUAGGUGGUUUUCCCCUGAUGGUGCUAAGGGGGCCUGGAAGUUUGGACUGGGCAGAGCUCAACACAGCGAGGCAAAGUGGCUGUGGCUAGACUGCCUCUCUGGAUUCCUCGUCACUCAGCAGGGCAUCUCUGAGAGUAAUGCC [A24G U73A A140U], the self-cleavage was found to be 2.58.

For the variant UACGUAGGUGGUUUUCCCCUGAUGGUGCUAAGGGGGCCUGGAAGUUUGGACAGGGCAAAGCUCAACACGGCGUGGCAAAGUGGCUGUGGCCAGACUGCCUCUCUGGAUUCCUCGUCUCUCAGCAGGGCAUCCCUGAGAGAGAUGCC [A24G U52A G58A A69G U91C A117U U132C A141G], the self-cleavage stood at 0. In the case of UACGUAGGUGGUUUUCCCCUGAUGGUGCUAAGGGGGCCUGGAAGCUUGGACUGGGCAGAGCUCAGCAUAGCGUGGCAAAGUGGCUGUGGCUAGACUGCCUCUCUGGAUUCCUCGUCACUCAGCAGGGCAUCUCUGAGAGAAAUGCC [A24G U45C A65G C68U] it was 0.04. Consider UACGUAGGUGGUUUUCCCCUGAUGGUGCUAAGGGGGCCUGGAAGUUUGGACUGGGCAGAGCUCAACACAGCGUGGCAAAGUGGCUGUGGCUAGACUGCCUCUCUGGGUUCCUCGUCACUCAUCAGGGCAUCUCUGAGAGAAAUGCC [A24G A107G G122U], for which the self-cleavage is 1.48.

In the case of UACGUAGGUGGUUUUCCCCUGAUGGCGCUAAGGGGGCCUGGAAGUUUGGACUGGGCAGAGCUCAGCACAGCGUGGCAGAGUGGCUGUGGCUAGACUGCCUCUCUGGAUUCCUCGUCACUCAGCAGGGCAUCUCUGAAAGAAAUGCC [A24G U26C A65G A78G G137A], the self-cleavage stood at 0. For the variant UACGUAGGUGGUUUUCCCCUGAUGGUGCUAAGGGGGCCUGGAAGUUUGGACUGGGCAGAGCUCAACACAGCGUGGCAAAGUGGCUGUGGCUAGACUGCCUCUCUGGAUUCCUCGUCACUCAGCGGGGCAUCUCUGAGAGAAAUACC [A24G A124G G144A], the self-cleavage is 1.39.

Turning to UACGUAGGUGGUUUUCCCCUGAUGGUGCUAAGGGGGCCUGGAAGUCUGGACUGGGCAGAGCUCAACACAGCGUGGCAAAGUGGCUGUGGCUAGACUGCCUCUCUGGAUUCCUCGUCACUCAGCAGGGCAUCUCUGAGAGAAACGCC [A24G U46C U143C], the self-cleavage amounted to 2.3. Turning to UACGUAGGUGGUUUUCCCCUGAUGGUGCUAAGGUGGCCUGGAAGUUUGGACUGGGCAGAGCUCAACACAGCGUGGCAAAGAGGCUGUGGCUAGACUGCCUCUCUGGAUUCCUCGUCACUCGGCAGGGCAUCUCUGAGAGAAAUGCC [A24G G34U U81A A121G], the self-cleavage worked out at 1.84. Consider UACGUAGGUGGUUUUCCCCUGAUGGUGCUAAUGGGGCCUGGAAGUUUGGACUGGGCAGAGCUCAACACAGCGUGGCUAAGUGGCUGUGGCUAGACUGCCUCUCUGGAUUCCUCGUCACUCAGCAGGGCAUCUCUGAGAGAAAUGCC [A24G G32U A77U], for which the self-cleavage is 0.71. For UACGUAGGUGGUUUUCCCCUGAUGGUGCUAAGGGGGCCUGGAAGUUUGGACUGGGCAGAGCUCAACACAGCGUGGCAAAGAGGCUGUGGCUAGACUGCCUCUCUGGAUUUCCCGUCACUCAGCAGGACAUCCCUGAGAGAAAUGCC [A24G U81A C110U U112C G127A U132C], the self-cleavage amounted to 1.72. In the case of UACGUAGGUGGUUUUCCCCUGAUGGUGCUAAGGAGGCCUGGAAGUUUGGACUGGGCAGGGCUCAACACAGCGUGGCAAAGUGGCUGUGGCUAGAUUGCCUCUCUGGAUUCCUCGUCACUCAGCAGGGCAUCUCUGAGAGAAAUGCC [A24G G34A A59G C95U] it was 0.09.

As to UACGUAGGUGGUUUUCCCCUGAUGGCGCUAAGGGGGCCUGGAAGUUUGGACUGGGCAGGGCUCAACACAGCGUGGCAAAGUGGCUGUGGCUAGACUGCCUCUCUGGAUUCCUCGUCACUCAGCUGGGCAUCUCUGAGAGAAAUGCC [A24G U26C A59G A124U], the self-cleavage came out at 0.

UACGUAGGUGGUUUUCCCCUGAUGAUGCUAAGGGGGCCUGGAAGUUUGGACUGGGCAGAGCUCAACAAAGCGUGGCAAAGUGGCUGUGGCUAGACAGCCUCUCUGGAUUCCUCGUCACUCAGCAGGGCAUCUCUGAGAGAAGUGCC [A24G G25A C68A U96A A142G]: the self-cleavage was 0.26. In the case of UACGUAGGUGGUUUUCCCCUGAUGGAGCUAAGGGGGCCUGGAAGUUUGGACCGGGCAGAGCUCAACACAGCGUGGCAAAGUGGCUGUGGCUAGACUGCCUCUCUGGAUUCCUCGUCACUCAGCAGGGCAUCUCUGAGAGAAAUGCC [A24G U26A U52C] it was 1.77.

UACGUAGGUGGUUUUCCCCUGAUGGUGCUAAGGGGGCCUGGAAGUUUGGACUGGGCAGAGCUCAACACAGCGUGGCAAAGUGGCUGUGGCUAGACUGCCUCUCUGGAUUCCUCGUCCCUCAGCAGGGCAUCUCGGAGAGAAAUGCC [A24G A117C U134G]: the self-cleavage was determined as 1.63. For UACGUAGGUGGUUUUCCCCUGAUGGUGCUAAGGGGGCCUGGAAGUCUGGACUGGGCAGAGCUCAACACAGCGUGUAAAAGUGGCUGUGGCUAGACUGCCUCUCUGGAUUCCUCGUCACUCAGCAGGGCAUCUCUGAGAGAAAUGCC [A24G U46C G75U C76A] the value was 0.85; for UACGUAGGUGGUUUUCCCCUGAUGGUGCUAAGGGGGCCUGGAAGUUUGGACUGGGCAGAGCCCAACACAGCGUGGCAAAGUGGCUGUGGCUAGACAGCCUCUCUGGAUUCCUCGUCACUCAGCAGGGCAUCUCCGAGAGAAAUGCC [A24G U62C U96A U134C], 0; for UACGUAGGUGGUUUUCCCCUGAUGGUGCUAAGGGGGGCUGGAAGUUUGGACUGGGCAGAGCUCAACACAGCGUGGCAAAGUGGCUGUGGCUUGACUGCCUCUCUGGAUUCCCCGUCACUCGGCAGGGCAUCUCAGAGAGAAAUGCC [A24G C37G A92U U112C A121G U134A], 0. For UACGUAGGUGGUUUUCCCCUGAUGGUGCUAAGGGGGCCUGGAAGUUUGGACUGGGCAGAGCUCAACACAGCGCGGCAAAGUGGCUGUGGCCAGACUGCCUCUCUGGAUUCCUCGUCACUCAGCAGGGCAUCUCUGAGAGAAAUGCC [A24G U73C U91C] the value was 1.84. In the case of UACGUAGGUGGUUUUCCCCUGAUGGUGCUAAGGGGGCCUGGAAGUUUGGACUGGGCAGAGCUCAACACAGCGUGGCAAAGAGGCUGUGGCUAGACUGCCUCUCUGGAUACCUCGUCACUCAGCAGGGCAUCUCUGAGAGAAAUGCC [A24G U81A U109A], the self-cleavage came to 1.67. UACGUAGGUGGUUUUCCCCUGAUGGUGCUAAGGGGGCCAGGAAGUUUGGACUGGGCAGAGCUCAACACAGCGUGGCAAAGUGGCUGUGGCUAGACUGCCUCUCUGGAUUCCUCGUCACUCAGCAGGGCACCUCUGAGAGAAAUGCC [A24G U39A U130C]: the self-cleavage was found to be 1.26. For UACGUAGGUGGUUUUCCCCUGAUGGUGCUAAGGGGGCCUGGAAGUUUGGACUGGGCAGAGCUCAACACAGCGAGGCAAAGUGGCUGUGGCUAGACUGCCUCUCUGGAUUCCUCGUCACUCAGCAGGGCAUCUCUGAGAGAAGUGCC [A24G U73A A142G] the value was 3. For UACGUAGGUGGUUUUCCCCUGAUGGUGCUAAGGGGGCCCGGAAGUUUGGACUGGGCAGAGCUCAACACGGCGUGGCAGAGUGGCUGUGGCUAGACUGCCUCUCUGGAUUCCUCGUCACUCAGCAGGGCAUCUCUGAGAGAAAAGCC [A24G U39C A69G A78G U143A] the value was 0; for UACGUAGGUGGUUUUCCCCUGAUGGAGCUAAGGGGGCCUGGAAGUCUGGACUGGGCUGAGCUCAACACAGCGUGGCAAAGUGGCUGUGGCUAGACUGCCUCUCCGGAUUCCUCGUCACUCAGCAGGGCAUCUCUGAGAGAAAUGCC [A24G U26A U46C A57U U104C], 0; for UACGUAGGUGGUUUUCCCCUGAUGGUGCUAAGGGGGCCUGGAAGUUUGGACUGGGCAGAGCUCAACACAGCGUGGCAAAGUGGCUGUGGCUAGACUGCCUCUCUGGAUUCCUCGUCACUCAGCUGGGCUUCUCUGAGAGAAAAGCC [A24G A124U A129U U143A], 1.11.

Turning to UACGUAGGUGGUUUUCCCCUGAUGGUGCUAAGGGGGCCUGGAAGCUUGGACUGGGCAGAGCUCAACACAGCGUGGCAAAGUGGCUGUGGCUAGACUGCCUCUCUGGAUUCCUCGUCACUCAGCGGGGCAUCUCUGAGAGAAAUGCC [A24G U45C A124G], the self-cleavage worked out at 1.84. For UACGUAGGUGGUUUUCCCCUGAUGGUGCUAAGGGGGCCUGGAAGUCUGGACUGGGCAGAGCUCAACACAGCGUGGCAAAGUGGCUGUGGCUAGACUGCCUCUCUGGAUUCCUCGUCACUCAGCGGGGCAUCUCUGAGAGAAAUGCC [A24G U46C A124G] the value was 1.08. In the case of UACGUAGGUGGUUUUCCCCUGAUGGUGCUAAGGGGGCCUGGAAGUUCGGACUGGGCAGAGCUCAACACAGCCUGGCAAAGUGGCUGUGGCUAGACUGCCUCUCUGGAUUCCUCGUCACUCAGCAGGGCAUCUCUGAGAGAAAUGCC [A24G U47C G72C] it was 1.77; in that of UACGUAGGUGGUUUUCCCCUGAUGGUGCUAAGGGGGCCUGGAAGUCUGGACUGGGCAGAGCUCAACACAGCGUGGCAAAGAGGCUGUGGCUAGACUGCCUCUCUGGAUUCCUCGUCACUCAGCAGGGCAUCUCUGAGAGGAAUGCC [A24G U46C U81A A140G], 2.08. Take UACGUAGGUGGUUUUCCCCUGAUGGUGCUAAGGGGGCCUGGAAGUUUGGACUGGGCAGAGCUCAACACAGCGUGGCAAAAUGGCUGUGGCUAGGCUGCCUCUCUGGAUUCCUCGUCACUCAGCAGGGCAUCUCUGAGAGAAAUGCC [A24G G80A A94G]: the self-cleavage came to 0.53. For UACGUAGGUGGUUUUCCCCUGAUGGUGCUAAGGGGGCUUGGAAGCUCGGACUGGGCAGAGCUCAACACAGCGUGGCGAAGUGGCUGUGGCUAGACUGCCUCUCUGGAUUCCUCGUCACUCAGCAGGGCAUCUCUGAGAGAAAUGCC [A24G C38U U45C U47C A77G] the value was 1.84; for UACGUAGGUGGUUUUCCCCUGAUGGUGCUAAGGGGGCCUGGAAGUCUGGACUGGGCAGAGCUCAACACAGCGUGGCAAAGUGGCUGUGGCUAGACCGCCUCUCUGGAUUCCUCGUCACUCAGCAGGGCGUCUCUGAGAGGAAUGCC [A24G U46C U96C A129G A140G], 0. For UACGUAGGUGGUUUUCCCCUGAUGGUGCUAAGGGGGCCUGGAAGUUUGGACUGGGCAGAGCUCAACACAGCGUGGCAAAGUGGCUGUGGCUAGACUGCCUCUCUGGAUUCCUCGUCACUCAGCGGGGCAUCUCUGAGAGGAAUGCC [A24G A124G A140G] the value was 0.42; for UACGUAGGUGGUUUUCCCCUGAUGGUGCUAAGGGGGCCUGGAAGAUUGGACUGGGCAGCGCUCAACACAGCGUGGCAAAGUGGCUGUGGCUAGACUGCCUCUCUGGAUUCCUCGUCACUCAGCAGGGCAUCUCUGAGAGAAAUGCC [A24G U45A A59C], 0.63; for UACGUAGGUGGUUUUCCCCUGAUGGUGCUAAGGGGGCCUGGAAGUUCGGACUGGGCAGAGCUCAACACAGCGUGGCAAAGAGGCUGUGGCUAGACUGCCUCUCUGGAUUCCUCGUCACUCAGCAGGGCAUCUCAGAGAGAAAUGCC [A24G U47C U81A U134A], 2.59. For UACGUAGGUGGUUUUCCCCUGAUGGUGCUAAGGCGGCCUGGAAGUUUGGACUGGGCAGAGCUCAACACAGCGUGGCAAAGUGGCUGUGGCUAGACUGCCUCUCUGGAUUCCUCGUCACUCAGCAGGGCAUCUCUGAGAGAAGUGCC [A24G G34C A142G] the value was 0.74; for UACGUAGGUGGUUUUCCCCUGAUGGCGCUAAGGGGGCCUGGAAGUUUGGACUGGGCUGAGCUCAACACAGCGUGGCAAAGUGGCUGUGGCUAGACUGCCUCUCUGGAUUCCUCGUCACUCAGCAGGGCAUCUCUGAGGGAAAUGCC [A24G U26C A57U A138G], 0.25; for UACGUAGGUGGUUUUCCCCUGAUGGUGCUAAGGGGGCCUGGAAGUUAGGACUGGGCAGAGCUCAACACAGCGUGGCAAAGUGGCUGUGGCUAGACUGCCUCUCUGGAUUCCUCGUCGCUCAGCAGGGCAUCUCUGAGAGAAGUGCC [A24G U47A A117G A142G], 1.38. For UACGUAGGUGGUUUUCCCCUGAUGGUGCUAAGGGGGCCUGGAAGUUUGGACUGGGCAGAGCUCAACACAGCGUGGCAAAGUGGCUGUGGCUAGACUGCCUCUCUGGAUUCCUCGUCACUCAGCUGGGCAUCUCAGAGAGAAAUGCC [A24G A124U U134A], the self-cleavage was 1.78.
